Test results published in the BET-seq Pho4 binding data (Le et al. 2018).
This is one part of the list. The energies were worked out here from pooled read counts, against the library average; single values are noisy.

target: T1, Pho4 (S. cerevisiae) (UniProt P07270); experiment: relative binding free energy (BET-seq); higher = weaker binding; conditions: reference: library average
T1 sequence: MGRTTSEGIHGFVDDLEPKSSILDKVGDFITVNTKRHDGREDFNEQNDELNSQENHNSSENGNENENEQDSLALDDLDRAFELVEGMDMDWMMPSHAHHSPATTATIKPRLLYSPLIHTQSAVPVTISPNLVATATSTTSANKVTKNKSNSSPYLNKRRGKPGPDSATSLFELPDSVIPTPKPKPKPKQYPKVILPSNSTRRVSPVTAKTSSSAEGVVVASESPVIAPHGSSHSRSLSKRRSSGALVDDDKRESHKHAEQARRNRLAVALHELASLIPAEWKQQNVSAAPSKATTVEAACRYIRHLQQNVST

Row | Sequence | relative binding free energy
1 | TGAGACACGTGTTGTG | 0.02 kcal/mol
2 | AGGGACACGTGAGAGG | 0.17 kcal/mol
3 | CGTATCACGTGTTGGA | 0.26 kcal/mol
4 | CGGTTCACGTGTAGAT | 0.47 kcal/mol
5 | CTTTTCACGTGATGAG | 0.4 kcal/mol
6 | GTTAGCACGTGTGCAT | -0.04 kcal/mol
7 | GGTTGCACGTGCAGTA | -0.01 kcal/mol
8 | AAAGGCACGTGGGTCT | -0.14 kcal/mol
9 | GATTACACGTGGGGGC | 0.13 kcal/mol
10 | GAAGTCACGTGGTATA | 0.1 kcal/mol
11 | TGGGGCACGTGATGAT | -0.03 kcal/mol
12 | GTTATCACGTGGTCAT | 0.2 kcal/mol
13 | CGTTTCACGTGGGAGA | 0.1 kcal/mol
14 | TTACGCACGTGTGGGT | 0.05 kcal/mol
15 | GGCTGCACGTGGCGCG | -0.15 kcal/mol
16 | TGTGCCACGTGATGAG | 0.07 kcal/mol
17 | TGTTTCACGTGAGGGA | 0.32 kcal/mol
18 | TGTGTCACGTGTTCAC | 0.08 kcal/mol
19 | GCGATCACGTGTGGGA | 0.14 kcal/mol
20 | TGCGGCACGTGCAAGG | -0.1 kcal/mol
21 | GTGAGCACGTGTGTGC | 0 kcal/mol
22 | GATTGCACGTGTCGAG | 0.14 kcal/mol
23 | GTAGGCACGTGATCTT | 0.02 kcal/mol
24 | GGGGGCACGTGGGGCT | -0.22 kcal/mol
25 | TCATTCACGTGGTTTA | 0.21 kcal/mol

Row | Sequence | relative binding free energy
26 | TCCTTCACGTGGTGTT | 0.12 kcal/mol
27 | TTTCACACGTGATATG | 0.08 kcal/mol
28 | ATTTTCACGTGCGATT | 0.29 kcal/mol
29 | TATCACACGTGTTATT | 0.12 kcal/mol
30 | TGTCACACGTGTTTGA | -0.06 kcal/mol
31 | GACTTCACGTGTAGTG | 0.22 kcal/mol
32 | GTGCGCACGTGCGTGG | -0.13 kcal/mol
33 | AGGGTCACGTGACATT | 0.1 kcal/mol
34 | AGCGTCACGTGGCGTT | 0.02 kcal/mol
35 | TGTAGCACGTGGATTG | -0.08 kcal/mol
36 | AATTTCACGTGAGAGT | 0.36 kcal/mol
37 | TTGCACACGTGTTGTG | 0.02 kcal/mol
38 | AGTGGCACGTGATTAG | 0.01 kcal/mol
39 | GGGAACACGTGGGGAG | -0.07 kcal/mol
40 | GGACTCACGTGAGTGG | 0.28 kcal/mol
41 | CGAGCCACGTGGGGGG | -0.23 kcal/mol
42 | TCGTTCACGTGGCTGT | 0.15 kcal/mol
43 | CTGGTCACGTGAAGGG | 0.27 kcal/mol
44 | AGGCGCACGTGTATAT | -0.06 kcal/mol
45 | GAGGTCACGTGCGAGA | 0.24 kcal/mol
46 | AATTTCACGTGCGCGT | 0.31 kcal/mol
47 | GAAGTCACGTGGGGGT | 0.04 kcal/mol
48 | GCAGTCACGTGGGGTA | -0.06 kcal/mol
49 | GTGGCCACGTGCGTGT | -0.25 kcal/mol
50 | AGGTACACGTGAGAAT | 0.41 kcal/mol

Row | Sequence | relative binding free energy
51 | AGGAGCACGTGGAATG | 0 kcal/mol
52 | CTGATCACGTGTGCTT | 0.24 kcal/mol
53 | GATTTCACGTGTTAAA | 0.39 kcal/mol
54 | GTGACCACGTGTGATT | 0.12 kcal/mol
55 | TTGAGCACGTGTGAAA | -0.06 kcal/mol
56 | AAGAGCACGTGGGTTA | -0.19 kcal/mol
57 | AGAGTCACGTGCAAGT | 0.19 kcal/mol
58 | GTGCGCACGTGGGTCA | -0.22 kcal/mol
59 | CACTTCACGTGTGGGT | 0.34 kcal/mol
60 | GCATGCACGTGTAGTT | 0.08 kcal/mol
61 | TTTGACACGTGGGTAC | -0.14 kcal/mol
62 | ATTAACACGTGGGGGT | -0.22 kcal/mol
63 | TTAGGCACGTGATGTG | -0.05 kcal/mol
64 | TATATCACGTGGTATG | 0.07 kcal/mol
65 | GTCAACACGTGTGGGT | 0.08 kcal/mol
66 | TTGTTCACGTGAGTGA | 0.34 kcal/mol
67 | TTGGGCACGTGGCGCT | -0.17 kcal/mol
68 | CAGGGCACGTGTGGGG | -0.12 kcal/mol
69 | GTGGTCACGTGCACGT | 0 kcal/mol
70 | CTTATCACGTGGGTGT | 0.05 kcal/mol
71 | CAGGGCACGTGCGGGC | -0.13 kcal/mol
72 | GTTGTCACGTGCGCTT | 0.08 kcal/mol
73 | GCGGTCACGTGTAGGG | 0.17 kcal/mol
74 | TTTCTCACGTGGGTTG | 0.15 kcal/mol
75 | TATTGCACGTGAGTGA | 0.06 kcal/mol

Row | Sequence | relative binding free energy
76 | GTGGCCACGTGATGGT | 0.14 kcal/mol
77 | TTGATCACGTGGAATT | 0.27 kcal/mol
78 | AGGGACACGTGAGCGG | 0.17 kcal/mol
79 | TTGTTCACGTGCGTGC | 0.19 kcal/mol
80 | TTCAACACGTGTGGGT | -0.05 kcal/mol
81 | TGGTACACGTGCGGCG | -0.14 kcal/mol
82 | AGTGGCACGTGTGGTC | 0.04 kcal/mol
83 | TAGATCACGTGTACGG | 0.16 kcal/mol
84 | TATTGCACGTGTGGCT | -0.03 kcal/mol
85 | TGAGTCACGTGCAATG | 0.2 kcal/mol
86 | TACGGCACGTGGGGGC | -0.23 kcal/mol
87 | TGGGACACGTGCGAGG | -0.01 kcal/mol
88 | AATAGCACGTGGGTGG | -0.24 kcal/mol
89 | AGGTTCACGTGATCGT | 0.36 kcal/mol
90 | TTTGGCACGTGTGAGG | 0 kcal/mol
91 | AGTAGCACGTGAGGCA | 0.37 kcal/mol
92 | TGTTGCACGTGAGTGC | 0.2 kcal/mol
93 | GCGGGCACGTGGTGCG | -0.19 kcal/mol
94 | TTCTTCACGTGCGGGA | 0.27 kcal/mol
95 | GGGATCACGTGCGGGG | 0.07 kcal/mol
96 | GTGGTCACGTGAATAG | 0.33 kcal/mol
97 | GTAAGCACGTGGGGAT | -0.27 kcal/mol
98 | ATGTTCACGTGGTCGT | 0.24 kcal/mol
99 | GGGCTCACGTGATTGG | 0.33 kcal/mol
100 | GACTTCACGTGTTGTT | 0.42 kcal/mol

Row | Sequence | relative binding free energy
101 | CAAGGCACGTGGGATT | -0.12 kcal/mol
102 | TGGGTCACGTGCGATT | 0.11 kcal/mol
103 | AGGGGCACGTGCAGTT | -0.25 kcal/mol
104 | AAAGGCACGTGGTTTG | -0.19 kcal/mol
105 | TCGCGCACGTGGGAGT | -0.27 kcal/mol
106 | ATTCTCACGTGCGTTG | 0.28 kcal/mol
107 | AAAGGCACGTGGTGTG | -0.24 kcal/mol
108 | TGGATCACGTGGCGCG | 0.11 kcal/mol
109 | GGAGTCACGTGATAGG | 0.29 kcal/mol
110 | CTTGGCACGTGGTAAG | -0.11 kcal/mol
111 | GGTGTCACGTGGCTCG | 0.08 kcal/mol
112 | ATATTCACGTGAGTAT | 0.24 kcal/mol
113 | GCGAGCACGTGGGATG | -0.19 kcal/mol
114 | TCGGGCACGTGATGTG | 0.07 kcal/mol
115 | TGGAACACGTGCGGTT | 0.01 kcal/mol
116 | TAGGTCACGTGTGCGA | 0.08 kcal/mol
117 | TTTAGCACGTGGTAAC | 0.02 kcal/mol
118 | CGGCACACGTGGTGAG | 0.07 kcal/mol
119 | GAGTACACGTGGTGAG | 0.11 kcal/mol
120 | TCTTCCACGTGGTGGG | 0.02 kcal/mol
121 | TAGGTCACGTGTAAAT | 0.16 kcal/mol
122 | AGGAGCACGTGTATTG | -0.14 kcal/mol
123 | TTGGGCACGTGCTACG | -0.23 kcal/mol
124 | GTTGGCACGTGCTAGG | -0.17 kcal/mol
125 | AGCTTCACGTGGGGAG | 0.24 kcal/mol

Row | Sequence | relative binding free energy
126 | TTTAACACGTGAGTTC | 0.34 kcal/mol
127 | CGGTACACGTGAAGTT | 0.54 kcal/mol
128 | AGGTCCACGTGAGTTA | 0.24 kcal/mol
129 | GATTTCACGTGATTTG | 0.49 kcal/mol
130 | TGAGTCACGTGAGGCA | 0.22 kcal/mol
131 | GTCTGCACGTGGTTTT | 0.14 kcal/mol
132 | TCATTCACGTGATAGG | 0.34 kcal/mol
133 | GTGGTCACGTGTTTGC | 0.22 kcal/mol
134 | TGCTCCACGTGTTTTT | 0.11 kcal/mol
135 | TGAATCACGTGTGCTT | 0.14 kcal/mol
136 | ATGGTCACGTGTCGTC | 0.17 kcal/mol
137 | ATTGTCACGTGCGTTT | -0.1 kcal/mol
138 | TTTTACACGTGTAGTG | 0.08 kcal/mol
139 | GTGAGCACGTGCAGGT | -0.14 kcal/mol
140 | ATCATCACGTGAGGTT | 0.33 kcal/mol
141 | GTCTTCACGTGGGAGT | 0.31 kcal/mol
142 | GTTGACACGTGTAATG | 0.24 kcal/mol
143 | CTGTTCACGTGGTTGG | 0.19 kcal/mol
144 | TTAGTCACGTGATATG | 0.23 kcal/mol
145 | AGTGACACGTGATCGT | 0.05 kcal/mol
146 | CAGATCACGTGTAGGT | 0.11 kcal/mol
